Laboratory results published in PubChem BioAssay AID2100 (National Center for Advancing Translational Sciences (NCATS), 2009).
Hit rate of the full screen: of about 300,000 compounds, about 1,200 (0.4%) were called active. This list was built around the results that the source calls inconclusive (neither active nor inactive); the mix of calls is not that of the screen. The call rests on the fitted dose curve; in most records, active means well fitted inhibition curve with a large enough effect; inconclusive means small, poorly fitted or top-dose-only effect, or another doubt; inactive means no such curve, though single readings can be large or run the other way. Where the call is inconclusive, the potency comes from a doubtful curve fit.

target: Lysosomal alpha-glucosidase (Homo sapiens) (UniProt P10253); assay: qHTS Assay for Inhibitors and Activators of Human alpha-Glucosidase Cleavage of Glycogen; conditions: recombinant GAA, glycogen substrate, Amplex Red glucose oxidase fluorescence; series mostly up to 76.4 µM
Outline: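 Recombinant human enzyme (4 nM); glycogen substrate; 37 C, 40 min, pH 5.0. Readout: coupled glucose oxidase/Amplex Red fluorescence.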
Potency means the concentration at half of the fitted maximal effect.

Structure (SMILES)	Potency
O=c1cc(CSc2ccc(Cl)cc2)[nH]c2[nH]n(-c3ccccc3)c(=O)c12	inconclusive: 35.5 µM [inhibitor, single point]
Cc1ccc(/C=C2/SC(=O)NC2=S)o1	inconclusive: 28.2 µM [inhibitor, single point]
O=C(Nc1ccccc1)Oc1ccccc1N1CCOCC1	inconclusive: 50.1 µM [inhibitor, single point]
CN(C)/N=C/c1c(O)ccc2ccccc12	active: 14.1 µM
CN1/C(=c2/s/c(=C3/C(=O)N(c4ccccc4)NC3=Nc3ccccc3)n(C)c2=O)C(C)(C)c2ccccc21	inconclusive: 39.8 µM [inhibitor, partial curve, poor fit]
CC(C)CC(=O)NC(=S)NNC(=O)c1cccc([N+](=O)[O-])c1	inconclusive: 35.5 µM [inhibitor, single point]
Cn1ccnc1C(O)c1cc(C(C)(C)C)c(O)c(C(C)(C)C)c1 (centres undefined)	inconclusive: 24.9 µM [inhibitor, partial curve]
Cc1ccc(N2C(=O)C(Cl)=C(Nc3c(C)n(C)n(-c4ccccc4)c3=O)C2=O)cc1	active: 25.1 µM
C=CC[n+]1c(-c2ccc(OCC)cc2)csc1NNC(=O)Nc1ccccc1	inconclusive: 28.2 µM [inhibitor, partial curve]
CC(C)(C)c1csc(NNC(=O)c2ccc(Br)cc2)n1	inconclusive: 50.1 µM [inhibitor, single point]
CC(=O)N1CCN(S(=O)(=O)c2ccc3c(c2)CC(=O)N3)CC1	active: 11.9 µM
Cc1cccc(C(=O)NNS(=O)(=O)c2ccccc2)c1O	inconclusive: 15.7 µM [inhibitor, partial curve]
COc1ccc(NC(=S)Nc2ccc(OCc3ccccc3)cc2)c(OC)c1	inconclusive: 11.2 µM [inhibitor, partial curve]
O=c1[nH]c2ccc(NCc3ccc(-c4cccc(Cl)c4)o3)cc2[nH]1	inconclusive: 7.94 µM [inhibitor, partial curve]
CCCN1CC=C2C(C#N)=C(N)C(C#N)(C#N)C(c3cc(OC)ccc3OC)C2C1 (centres undefined)	inconclusive: 39.5 µM [inhibitor, partial curve]
CCN(CC)c1ccc(/C=N/Nc2nc(C)cc(C)n2)cc1	active: 11.2 µM
CCOc1ccccc1NS(=O)(=O)c1cccs1	inactive
Cc1ccc(NCc2ccco2)cc1C	inconclusive: 28.2 µM [inhibitor, single point]
Cc1cc(SCC(=O)NN)c2cc(Br)ccc2n1	inconclusive: 22.4 µM [inhibitor, partial curve]
O=C1CSC(=S)N1/N=C/c1ccc(O)c([N+](=O)[O-])c1	inconclusive: 20 µM [inhibitor, partial curve]
COC(=O)c1c(N)n(-c2ccc(N3CCOCC3)cc2)c2nc3ccccc3nc12	inactive
Cn1c(=O)c(C(=O)NNC(=O)c2ccc(Br)cc2)c(O)c2ccccc21	inconclusive: 50.1 µM [inhibitor, single point]

Structure (SMILES)	Potency
CC(C)(O)C(=O)NNC(=S)Nc1cccc(C(F)(F)F)c1	inconclusive: 7.94 µM [inhibitor, partial curve]
COc1cc(/C=N/N(C)C)cc(Br)c1O	active: 4.47 µM
CCOC(=O)N/N=C/c1ccc(N2CCOCC2)s1	inconclusive: 31.6 µM [inhibitor, single point]
O=C(NNC(=S)Nc1ccccc1Cl)c1ccccc1Br	inconclusive: 50.1 µM [inhibitor, single point]
CCOc1ccc(-n2c(SCc3nc(-c4ccc(OC)cc4)no3)nnc2-c2ccncc2)cc1	inactive
COc1cccc(/C=N/c2sc(Cc3ccccc3)c(C)c2C(N)=O)c1O	inconclusive: 31.6 µM [inhibitor, single point]
CCNc1nc(NCC)nc(N/N=C/c2ccc(O)c(O)c2)n1	inconclusive: 15.8 µM [inhibitor, partial curve]
Cc1ccc(C(=C2C3C=CC2C2C(=O)NC(=O)C32)c2ccc(C)cc2)cc1 (centres undefined)	inconclusive: 4.43 µM [inhibitor, single point]
O=C(Cn1cc(S(=O)(=O)Cc2ccccc2Cl)c2ccccc21)NCc1ccccc1Cl	inactive
CC1CCC2C(C1)c1sc(=O)[nH]c1SC2(C)C (centres undefined)	inconclusive: 31.6 µM [inhibitor, single point]
S=C(NCCc1ccccc1)N1CCn2cccc2C1c1ccncc1 (centres undefined)	inconclusive: 28.2 µM [activator, partial curve]
COc1cc(Cn2c(-c3ccc(O)c(OC)c3)nc3ccccc32)ccc1O	active: 28.2 µM
Cn1c(Nc2cccc(Cl)c2)nc2ccccc21	inconclusive: 50.1 µM [inhibitor, partial curve]
CC1(C)Cc2c(sc3ncn(N)c(=N)c23)CO1	inactive
COc1cc(/C=C/c2nc(C#N)c(NC3CCCCC3)o2)cc(OC)c1OC	inconclusive: 31.6 µM [inhibitor, partial curve]
CC(C)Oc1ccc(C(=O)Nc2ccccc2N2CCCC2)cc1	inconclusive: 10 µM [inhibitor, partial curve]
Fc1ccc(NC(=S)NN=C2CCCCCC2)cc1	inconclusive: 31.4 µM [inhibitor, partial curve, poor fit]
Cc1c(N=Cc2ccc[nH]2)c(=O)n(-c2ccccc2)n1C	active: 22.4 µM
COc1ccccc1N1C(=O)CC(Nc2ccc(N3CCOCC3)cc2)C1=O (centres undefined)	inconclusive: 28.2 µM [inhibitor, partial curve]
Cc1ccc(OCc2n[nH]c(=S)n2-c2ccc(Br)cc2)cc1	inconclusive: 35.5 µM [inhibitor, partial curve]
CCC(C)n1ncn(-c2ccc(N3CCN(c4ccc(O)cc4)CC3)cc2)c1=O (centres undefined)	inconclusive: 11.2 µM [inhibitor, single point]
Cc1nnc(N/N=C/c2c(Cl)cccc2Cl)n1N	inconclusive: 20 µM [inhibitor, partial curve]
